# Measurements taken from the supplement of paper PMC7826260.
# Some of the results follow. The data describe in vitro nicking of single-stranded DNA by Rep domains (3 µM enzyme, 1 h, 37 °C); shown is the middle of each 90-letter strand. A value is the log2 ratio of uncut reads to the pool without enzyme; strong cutting gives strongly negative numbers. There is no active / inactive call. Shares of all reads are compared, so uncut sequences can rise above 0 when many others are cut.
# System: T1, Rep nickase domain of tomato golden mosaic virus
# T1 sequence (residues 1-124 of Rep, tag left off): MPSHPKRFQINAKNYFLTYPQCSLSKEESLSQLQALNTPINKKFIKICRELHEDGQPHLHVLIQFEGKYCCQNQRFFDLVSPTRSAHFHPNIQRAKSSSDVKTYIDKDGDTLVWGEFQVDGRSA
# Test: uncleaved DNA left, log2 of reads against the no-enzyme library (log2 ratio); higher = less cleavage (more negative = more Rep cleavage of the k-mer); sequences stand for … in CTCGTCCG…ACCGGAGA
# Protocol: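 A pool of 90-nt single-stranded DNAs with seven random bases just before the constant AC of the nick site (name = the seven bases) was cut by 3 µM recombinant His6-SUMO-tagged Rep nickase domain (300 nM DNA, 50 mM HEPES pH 8.0, 50 mM NaCl, 1 mM MnCl2, 1 h, 37 °C, three replicates). Uncut DNA was amplified and sequenced.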
row,Sequence,uncleaved DNA left (log2)
1,GTGGGGG,0.103
2,AGCATGA,0.0796
3,ACAGGCC,0.087
4,AGAGTCC,0.105
5,GCAATGC,-0.169
6,TGTGATG,0.145
7,CACACCG,-0.0553
8,TCTCCAG,-0.131
9,ATGGGGC,0.0571
10,TGTTCGC,-0.0602
11,GGTCTGT,-0.0522
12,GTGTCGT,0.0179
13,CTCCTTT,-0.29
14,GCCTCGA,0.169
15,AGTCTGC,-0.0856
16,GCTGTAG,-0.0101
17,TGCGACA,0.0529
18,CAGTTCC,0.167
19,AGTCGGA,0.0513
20,CCTAATG,-0.0181

row,Sequence,uncleaved DNA left (log2)
1,ATACGTC,-0.0556
2,GGACTGA,0.156
3,ATTGCTG,-0.0645
4,CCACCGA,-0.115
5,GGAATCC,-0.0144
6,TGCTTAC,0.0435
7,AAGGTTA,0.0375
8,AAGTGCT,-0.0936
9,AACGCTA,0.142
10,GGCAGCT,-0.165
11,CCGTTAA,-0.0791
12,GCACTCA,0.0675
13,TCAAGAA,-0.0206
14,AATGCCT,0.0469
15,ACAACCG,0.0632
16,CACTTCG,-0.136
17,GATACAG,-0.104
18,TCTGCGC,-0.267
19,TCACGTA,0.0966
20,ATTACAC,-0.072
